# Reference: PubChem BioAssay AID686978 (National Center for Advancing Translational Sciences (NCATS), 2013)
# The whole screen tested about 420,000 compounds, of which about 64,000 (15%) were called active. The inconclusive results got no clear call from the source; some entries with a clear call stand among them for comparison. Calls follow the shape of the dose curve; as a rule, active = well fitted inhibition curve with a large enough effect; inconclusive = small, poorly fitted or top-dose-only effect; inactive = flat fitted curve, though single readings scatter. No potency is given beside an inconclusive call; the fits are too rough. Square brackets hold non-standard residues; d marks the D form. Peptide text beside a SMILES is read from it. * marks the point of attachment. ξ: configuration not given here. Cbz = O=C(OCc1ccccc1)*; ξL = CC(C)CC(N)C(=O)O; ξP = O=C(O)C1CCCN1
# Test: qHTS for Inhibitors of human tyrosyl-DNA phosphodiesterase 1 (TDP1): qHTS in cells in absence of CPT; also: nearly all actives have a fitted effect of over 55% in size
# Details: DT40 Tdp1-/- hTDP1 cells, no CPT, ATP luminescence, 48 h; activity change, negative = growth inhibition: at 46.2 µM (top of the series) unless noted
# Method in brief: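 Chicken DT40 Tdp1-/- cells stably complemented with human TDP1 were seeded at 400 cells/well with DMSO in place of 20 nM camptothecin. After compound pinning, cells grew at least 48 hr at 37 °C; viability read by CellTiter-Glo luminescence.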
# % is scaled to controls: 0 for no effect and ±100 for the full control effect; potency is read from the fitted curve at half-maximal effect; tags tell the direction and shape of the fitted curve.
SMILES,Potency,"activity change, negative = growth inhibition"
COc1ccc(OC)c(-c2csc(NC(=O)C3=COCCO3)n2)c1,active: 18.4 µM,
COc1ccc(NC(=O)Nc2sc3nc4n(c(=O)c3c2C)CCC(C)CC4)cc1OC (stereo not given),"inconclusive [inhibitor, single point]",
CCc1cc2cc3c(cc2nc1SCC(=O)Nc1cc(C)on1)OCO3,"inconclusive [inhibitor, single point]",
CC(C)NC(=S)N1CCN(C/C=C/c2ccccc2)CC1,inactive,
COc1ccc(NC(C)C(=O)N/N=C/c2ccccc2OCc2cccc(Br)c2)cc1 (stereo not given),"inconclusive [inhibitor, single point]",
CC(C)CC(NC(=O)C1CCCN1C(=O)[C@@H](C)NC(=O)OCc1ccccc1)C(=O)NCC(N)=O (stereo not given in full) (Cbz-[dA][ξP][ξL]G-NH2),inactive,
COC(=O)[C@]12CCCCC=C1N(CCc1ccc(OC)c(OC)c1)C(=O)[C@H](CC(=O)N1CCCC1)C2,"inconclusive [inhibitor, single point]",
Cc1noc(/C=C/N(C)C)c1S(=O)(=O)N1CCCC(C(=O)Nc2ccc(F)cc2F)C1 (stereo not given),"inconclusive [inhibitor, single point]",
COc1ccc(C2=NN(c3ccc(C=O)cc3)C(c3ccccc3)C2)cc1 (stereo not given),"inconclusive [inhibitor, partial curve]",
S=C(NCc1ccccn1)Nc1cccc(Cl)c1,"inconclusive [inhibitor, partial curve, poor fit]",
COc1ccc(NC(=O)CSCc2cc(=O)n3ccsc3n2)cc1,inactive,
CCOc1ccccc1CN1CCN(Cc2cc(=O)c3ccccc3[nH]2)CC1CCO (stereo not given),"inconclusive [inhibitor, single point]",
CCOC(=O)CNC(=O)CSc1nc(C(C)C)nc2c1cnn2-c1ccccc1,"inconclusive [inhibitor, single point]",
COc1ccc(N2CC(C(=O)Nc3cc(C)ccn3)CC2=O)cc1 (stereo not given),inactive,
[O-][n+]1ccccc1SSc1cccc[n+]1[O-],active: 0.119 µM,
COn1c(SCc2ccc(Cl)cc2)nc2ccccc2c1=O,"inconclusive [inhibitor, single point]",
COC(=O)c1ccc(NC(=O)CCn2cccc2)cc1,,inconclusive: -30.1% [inhibitor]
Cc1ccc(-n2c(N)c(S(=O)(=O)c3ccccc3)c3nc4ccccc4nc32)cc1,"inconclusive [inhibitor, single point]",
Cc1ccc(NC(=S)NC(=O)c2cccs2)cc1F,active: 7.31 µM,
Cc1nc2cnc(OCc3ccccc3)nc2n(CCc2ccccc2)c1=O,"inconclusive [inhibitor, single point]",
Cc1ccc(C(=O)NCCSC(C)(C)C)cc1[N+](=O)[O-],"inconclusive [inhibitor, single point]",
C=CCN(CC=C)S(=O)(=O)c1ccc(NC(=S)NC(=O)/C=C/c2cccc3ccccc23)cc1,"inconclusive [inhibitor, single point]",
CCS(=O)(=O)c1ncc(Cl)c(C(=O)N2CCN(c3cccc(Cl)c3)CC2)n1,active: 0.206 µM,
COc1cc(C(=O)OCCc2c(C)nc3nc[nH]n3c2=O)cc(OC)c1OC,inactive,

SMILES,Potency,"activity change, negative = growth inhibition"
N#Cc1c(-c2ccccc2)ccn(Cc2ccc(Cl)cc2)c1=O,"inconclusive [inhibitor, single point]",
COc1ccc(CNC(=O)c2cn(Cc3ccc(S(=O)(=O)N(C)C)cc3)c(=O)s2)cc1,"inconclusive [inhibitor, partial curve, poor fit]",
N#Cc1ccccc1CN1C(=O)S/C(=C/c2cccn2-c2cccc(C(=O)O)c2)C1=O,"inconclusive [inhibitor, full curve, poor fit]",
COc1ccc(-c2nnc3c4ccccc4c(C)nn23)cc1S(=O)(=O)N1CCN(CCO)CC1,"inconclusive [inhibitor, partial curve]",
COC(=O)c1ccc(/C=N/Nc2nc(N3CCCCC3)nc(N3CCCCC3)n2)cc1,inactive,
CC(C)N(Cc1ccccc1)S(=O)(=O)c1ccc(-n2cccn2)cc1,"inconclusive [inhibitor, single point]",
CN(C)S(=O)(=O)c1cccc(NC(=O)c2cccc(NS(=O)(=O)c3ccccc3)c2)c1,"inconclusive [inhibitor, single point]",
COCCOC(=O)N/C=C\c1nc2ccccc2c(=O)[nH]1,"inconclusive [inhibitor, single point]",
O=C(c1ccco1)N1CCN(C(c2coc3ccc(Cl)cc3c2=O)c2nnnn2C2CCCC2)CC1 (stereo not given),"inconclusive [inhibitor, partial curve]",
CCN(CC)c1nc(-c2ccccc2)nc2ccccc12,"inconclusive [inhibitor, single point]",
O=C(Nc1ccc2c(c1)OCO2)c1ccccn1,inactive,
CC(C)CNC(=O)CSc1nnc(-c2cccc(S(=O)(=O)N3CCCCC3)c2)o1,"inconclusive [inhibitor, partial curve]",
NC(=O)C1(N2CCCCC2)CCN(C(=O)Nc2ccc(C(F)(F)F)cc2)CC1,"inconclusive [inhibitor, single point]",
Cc1cc(Oc2ccc(C)c(Cl)c2)nc(SCC(=O)c2ccccc2)n1,"inconclusive [inhibitor, single point]",
CC1c2ccccc2SC(CCCN(C)C)c2ccccc21 (stereo not given),"inconclusive [inhibitor, single point]",
CCSc1nnc(NC(=O)c2ccc3nc[nH]c3c2)s1,"inconclusive [inhibitor, single point]",
Cc1cnc(CNc2ncnc3ccc(-c4ccccc4C(F)(F)F)cc23)cn1,"inconclusive [inhibitor, single point]",
COc1cc2c(cc1NC(=O)C(C)Sc1nc3ccccc3n1C)oc1ccccc12 (stereo not given),inactive,
N#CCCN(NC(=O)OCc1ccccc1)C(=O)OCc1ccccc1,inactive,
OCCOCCNc1ncnc2nc[nH]c12,inactive,
Cc1ccc(S(=O)(=O)N2CCC(C(=O)Nc3ccc(S(=O)(=O)N4CCOCC4)cc3)CC2)cc1,"inconclusive [inhibitor, single point]",
CCCNC(=O)CCC(=O)Nc1ncc(-c2ccc(C)cc2)n1C,inactive,
Cc1ccc(CNS(=O)(=O)c2cc(C(=O)Nc3cccc(C(F)(F)F)c3)ccc2F)cc1,"inconclusive [inhibitor, single point]",
Cc1ccc(S(=O)(=O)N(C)c2ccccc2C(=O)Nc2c(F)cccc2F)cc1,inactive,

SMILES,Potency,"activity change, negative = growth inhibition"
N#CC(Cc1cccs1)c1nc2ccccc2[nH]1 (stereo not given),inactive,
CN(Cc1nc2ccccc2c(=O)[nH]1)C(=O)c1cccc(NC(=O)c2cccs2)c1,"inconclusive [inhibitor, single point]",
COc1ccc(C(=O)OC2CCN(c3ncc(C(F)(F)F)cc3Cl)CC2)cc1,"inconclusive [inhibitor, single point]",
Cc1ccc(S(=O)(=O)N2[C@@H](c3ccc(F)cc3)C(C(=O)O)=CC[C@H]2c2cccs2)cc1,inactive,
O=C1CSC(=S)N1/N=C/c1ccc2c(c1)OCCO2,"inconclusive [inhibitor, partial curve]",
CCOC(=O)CN1C(=O)N[C@@H](c2ccc(Br)cc2)C(C(=O)OC)=C1C,"inconclusive [inhibitor, single point]",
CC(C)(Oc1ccc(Cl)cc1)C(=O)O,"inconclusive [inhibitor, partial curve]",
CCCCOc1ccc(Nc2cc(Cl)ccc2C(=O)O)cn1,inactive,
O=C(CSc1n[nH]c(=O)[nH]c1=O)NC1CC1,inactive,
C/C(N)=C(/C#N)C(=O)CSc1nnnn1-c1ccc(C)cc1,"inconclusive [inhibitor, single point]",
Cc1ccc2cc(C)c(N3CCC(C)CC3)nc2c1,inactive,
C=CC[C@@H](CC(=O)N(CCO)Cc1ccccc1)C(=O)N[C@H](COC(=O)[C@@H](CC=C)Cc1ccc(F)cc1)Cc1ccccc1,active: 23.1 µM,
C1CCCN(c2nc3nonc3nc2N2CCCCCC2)CC1,"inconclusive [inhibitor, partial curve]",
Cc1cc(C)c2c(=O)cc(CSc3nnc(COc4ccccc4C)n3C)[nH]c2c1,"inconclusive [inhibitor, single point]",
CC(C)CCOc1ccc(C(=O)C[N+]2(C)CCOCC2)cc1,active: 18.4 µM,
Cc1cc(C)nc(N/N=C/c2cccc(Cl)c2)n1,inactive,
Cn1cc(SCC(=O)N2CCN(c3ccccc3)CC2)c2ccccc21,"inconclusive [inhibitor, single point]",
O=C(Cn1cnc2ccccc21)Nc1ccc2c(c1)OCCCO2,active: 2.31 µM,
COc1ccc(OCCSc2nc3nc(C)cc(C)n3n2)cc1,"inconclusive [inhibitor, single point]",
COc1ccccc1-c1cc(C(F)(F)F)nc(S(=O)(=O)CCCC(=O)Nc2cc(OC)c(OC)c(OC)c2)n1,active: 20.6 µM,
CCCN(CCC)CCNC(=O)c1cn(C)c(=O)c2c1c1ccccc1n2C,"inconclusive [inhibitor, single point]",
COc1ccc(CNC(=O)C2CCCN(c3ncnc4c3nc3n4CCCCC3)C2)cc1 (stereo not given),"inconclusive [inhibitor, partial curve]",
